Assay results as given in the supplement of paper PMC10126150.
Values marked as one replicate rest on one cluster of the flow cell; about a third of the high ones do not repeat.
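Also: ATP exposure 15 min at 22 °C before imaging.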

Each sequence was assayed on ATP (assay: switch fluorescence ratio, 500 uM ATP over buffer (Cy3 cluster intensity, sum of 5 cycles each) (fold (ratio)); higher = stronger signal-on switching upon ATP binding; sequences stand for … in TCGTCGGCAGCGTCAGATGTGTATAAGAGACAGTTTTTTTTTTTTTTTTTTTTTTTTT…TC). Details: aptamer strand: ATP DNA aptamer (quencher-CACCTGGGGGAGTATTGCGGAGGAAGG + anchor), 100 nM annealed; ATP concentration: 500 uM; one replicate.
In short: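 Imaging in selection buffer was followed by imaging after 15 min with 500 uM ATP at 22 °C, for Cy3-labelled switching-strand clusters annealed to 100 nM quencher-labelled ATP aptamer on a modified Illumina MiSeq flow-cell. Five of these buffer/ATP cycles ran, separated by NaOH stripping and re-annealing. The fluorescence ratio per cluster is summed target-cycle over summed buffer-cycle Cy3 intensity, averaged per switch-domain sequence; clusters outside 100-1000 RFU were removed.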
CCGTAGATCA was tested, and the switch fluorescence ratio was 1.34.
AATACGTACC was tested, and the switch fluorescence ratio was 1.72.
GGCTGATGA was tested, and the switch fluorescence ratio was 0.973.
CGATGACTCG showed a switch fluorescence ratio of 1.05.
ATCTGCAACC showed a switch fluorescence ratio of 3.28.
Sequence ATATGAAGTG has a switch fluorescence ratio of 1.1.
Work on AATGTAGG yielded a switch fluorescence ratio of 0.974.
ACGGCCCACA showed a switch fluorescence ratio of 1.21.
In the case of CCCTCGTAGG, the switch fluorescence ratio is reported as 1.03.
Sequence GCAAAGGAGA has a switch fluorescence ratio of 1.02.
Work on CTACATAAGC yielded a switch fluorescence ratio of 1.1.
In the case of TAATAGCAC, the switch fluorescence ratio is reported as 1.02.
In the case of CCGAACATTT, the switch fluorescence ratio is reported as 1.14.
For CCACAGGGAG, the switch fluorescence ratio was 1.28.
GCCAAGCCGG showed a switch fluorescence ratio of 0.999.
Work on TCGGCGCCCC yielded a switch fluorescence ratio of 1.01.
TGATACTGGT was tested, and the switch fluorescence ratio was 0.988.
With TACAGGTAGG the switch fluorescence ratio was 1.03.
Work on ACTCCAAA yielded a switch fluorescence ratio of 1.35.
For AACAAATTCA, the switch fluorescence ratio was 0.957.
With ATAGTGCTG the switch fluorescence ratio was 0.94.
TAAAACTGG gave a switch fluorescence ratio of 1.02.
For ATTTGAGAGG, the switch fluorescence ratio was 0.959.
In the case of AAATCCGTT, the switch fluorescence ratio is reported as 0.963.
Sequence TATTTGGCGA has a switch fluorescence ratio of 1.01.
In the case of GCTTAAAATC, the switch fluorescence ratio is reported as 1.03.
For AATAACGTCA, the switch fluorescence ratio was 1.1.
CATGGGACCA was tested, and the switch fluorescence ratio was 1.02.
For GCAGCATGTT, the switch fluorescence ratio was 1.12.
Work on AGTCGTTGT yielded a switch fluorescence ratio of 0.986.
Sequence TGAGTGCACC has a switch fluorescence ratio of 0.999.
CATTAGACTC was tested, and the switch fluorescence ratio was 0.993.
In the case of CATAAGACGG, the switch fluorescence ratio is reported as 0.989.
GGTGAGCCCG gave a switch fluorescence ratio of 0.956.
CACCAGTGG was tested, and the switch fluorescence ratio was 1.02.
GTGCCCTTCA showed a switch fluorescence ratio of 1.04.
CGTGTGCACT gave a switch fluorescence ratio of 1.02.
With TTATCGCGAT the switch fluorescence ratio was 1.
For CATTGTAAG, the switch fluorescence ratio was 1.02.
With GTGTGCGCTA the switch fluorescence ratio was 1.02.
In the case of TATAGAGAAC, the switch fluorescence ratio is reported as 1.05.
In the case of TGTTACAACA, the switch fluorescence ratio is reported as 1.05.
With TGAAGCGTGT the switch fluorescence ratio was 0.978.
ACACCTTATA gave a switch fluorescence ratio of 1.08.
For CTCCACTGCG, the switch fluorescence ratio was 1.13.
For TTTAAGCAAT, the switch fluorescence ratio was 2.43.
Work on TGGAATAAGC yielded a switch fluorescence ratio of 0.978.
Sequence CACAAGAACC has a switch fluorescence ratio of 1.05.
With CTAATGAGGA the switch fluorescence ratio was 0.977.
In the case of GGGCGACAAA, the switch fluorescence ratio is reported as 0.989.
GATGTCACG was tested, and the switch fluorescence ratio was 1.02.
In the case of GGGTCGTGGG, the switch fluorescence ratio is reported as 0.986.
TGCAAAAGTT gave a switch fluorescence ratio of 0.999.
Work on ACTGCCGGAG yielded a switch fluorescence ratio of 1.12.
GTTCACACCT gave a switch fluorescence ratio of 1.12.
Sequence TGATACAGCT has a switch fluorescence ratio of 0.966.
In the case of TGTATATGAT, the switch fluorescence ratio is reported as 0.988.
Work on TTCAGCGTTT yielded a switch fluorescence ratio of 1.04.
GCATGGTCGA gave a switch fluorescence ratio of 1.01.
ACTCCGTATT gave a switch fluorescence ratio of 4.41.
In the case of TTGCGGACGA, the switch fluorescence ratio is reported as 1.
In the case of AGATACGGGA, the switch fluorescence ratio is reported as 1.01.
ACGCCTCGTT was tested, and the switch fluorescence ratio was 1.05.
Sequence GGGGGAACGA has a switch fluorescence ratio of 1.03.
Work on TTTGTAGAAT yielded a switch fluorescence ratio of 1.01.
In the case of CTCACTTATC, the switch fluorescence ratio is reported as 1.02.
AATTGAAGCT was tested, and the switch fluorescence ratio was 0.991.
In the case of CCCCTTGCAG, the switch fluorescence ratio is reported as 1.16.
Sequence CTCGGTGCGT has a switch fluorescence ratio of 0.977.
ATTTTCATAA showed a switch fluorescence ratio of 0.976.
With CGACTACTTA the switch fluorescence ratio was 1.04.
CCGGCAAGAA gave a switch fluorescence ratio of 4.86.
ACAGGTGAAG showed a switch fluorescence ratio of 1.18.
Work on CATTGAGGTG yielded a switch fluorescence ratio of 0.998.
TCGGAGGTTG gave a switch fluorescence ratio of 0.911.
TAAAGACCCG gave a switch fluorescence ratio of 0.945.
In the case of ATCTCGCCAT, the switch fluorescence ratio is reported as 1.07.
Sequence TGCGGCCGAG has a switch fluorescence ratio of 0.998.
With GGCGTAGTCG the switch fluorescence ratio was 1.
Sequence TAATTTGGAT has a switch fluorescence ratio of 1.
GCGTTATCTA gave a switch fluorescence ratio of 0.989.
For TCGGCTTAAG, the switch fluorescence ratio was 0.967.
Work on TATGCTCGGT yielded a switch fluorescence ratio of 1.01.
AGGTATAAGA gave a switch fluorescence ratio of 0.994.
TAAGCGGCCG gave a switch fluorescence ratio of 1.05.
GGATCTTAGG was tested, and the switch fluorescence ratio was 0.98.
In the case of CTAACTCCGG, the switch fluorescence ratio is reported as 1.56.
GCAGCTCAGG was tested, and the switch fluorescence ratio was 1.33.
For ACTGTTCGTC, the switch fluorescence ratio was 0.998.
Work on CGTGGGCCGC yielded a switch fluorescence ratio of 1.03.
With GTCTCCCGAT the switch fluorescence ratio was 1.04.
ACGCACTGCG showed a switch fluorescence ratio of 1.06.
For TGCGAGGGAG, the switch fluorescence ratio was 0.932.
For CGTGCAAACG, the switch fluorescence ratio was 1.01.
Work on CGGAATGAAT yielded a switch fluorescence ratio of 1.02.
Work on ATGTACTTGT yielded a switch fluorescence ratio of 1.01.
In the case of TAGACAAAC, the switch fluorescence ratio is reported as 1.12.
Work on AACGTTTCAT yielded a switch fluorescence ratio of 0.885.
Sequence ATCAGGGAGG has a switch fluorescence ratio of 1.01.
GAATGGTAAT gave a switch fluorescence ratio of 0.986.
With GACTGTTGAT the switch fluorescence ratio was 1.
ACTAATCT was tested, and the switch fluorescence ratio was 1.04.
For GGAGAAAACT, the switch fluorescence ratio was 0.994.
Work on TTCAATATGG yielded a switch fluorescence ratio of 1.05.
With TTGATAGCCA the switch fluorescence ratio was 0.989.
In the case of AGCTGGCGGT, the switch fluorescence ratio is reported as 0.955.
TTTGCTACCA showed a switch fluorescence ratio of 1.1.
Sequence TACTGTGATG has a switch fluorescence ratio of 1.
Sequence AATTAATTAT has a switch fluorescence ratio of 0.981.
TCGTTGGACA gave a switch fluorescence ratio of 0.986.
GATCACATAC showed a switch fluorescence ratio of 1.61.
GGAGGCTGCT was tested, and the switch fluorescence ratio was 1.04.
AAGGCTCGGG was tested, and the switch fluorescence ratio was 0.997.
CTTGTCGAGC gave a switch fluorescence ratio of 0.997.
Sequence CCTCGGCAGG has a switch fluorescence ratio of 4.75.
TGCGGTAGGA gave a switch fluorescence ratio of 1.01.
With ACGCTTTTAT the switch fluorescence ratio was 1.06.
Work on CTCTGAGGAA yielded a switch fluorescence ratio of 1.09.
TGACGGCGGG showed a switch fluorescence ratio of 0.984.
With GCGCTTATTG the switch fluorescence ratio was 0.981.
With CTGGCAACTG the switch fluorescence ratio was 1.08.
With AAACACAGCG the switch fluorescence ratio was 1.04.
For CACGTCGCAC, the switch fluorescence ratio was 1.26.
For CTGCGTACGA, the switch fluorescence ratio was 1.22.
CTTCAAGGTA showed a switch fluorescence ratio of 0.98.
With TAGTTCCACT the switch fluorescence ratio was 0.938.
Work on CCATGTTGGC yielded a switch fluorescence ratio of 0.957.
TTAGTCCGTA gave a switch fluorescence ratio of 1.27.
AGGGAGGCGC gave a switch fluorescence ratio of 1.13.
With CACATTATGG the switch fluorescence ratio was 1.04.
With CCAAGTCTTT the switch fluorescence ratio was 1.02.
In the case of CCAGAAGAGG, the switch fluorescence ratio is reported as 0.986.
For CGAAAAAAGG, the switch fluorescence ratio was 0.979.
With GATAATGTCC the switch fluorescence ratio was 1.03.
TGATGGAGGT gave a switch fluorescence ratio of 0.994.
Work on GGATGAAGTG yielded a switch fluorescence ratio of 1.02.
In the case of GACATATTGC, the switch fluorescence ratio is reported as 1.1.
For ACTCGTTTT, the switch fluorescence ratio was 1.02.
With CCTACCCACT the switch fluorescence ratio was 1.62.
Work on TTGGGGCGCT yielded a switch fluorescence ratio of 1.03.
Sequence AGTGTCTCGA has a switch fluorescence ratio of 1.01.
With CATCCAGGGG the switch fluorescence ratio was 1.1.
AAACGTAAGC showed a switch fluorescence ratio of 1.07.
TGGGAAACCA showed a switch fluorescence ratio of 1.01.
For CGTCGTCGGT, the switch fluorescence ratio was 1.02.
TCGCGATTC gave a switch fluorescence ratio of 1.24.
Work on AAAAATATGG yielded a switch fluorescence ratio of 1.05.
For CCGGTTTGAC, the switch fluorescence ratio was 1.38.
Sequence TGGTCATGTT has a switch fluorescence ratio of 0.986.
Sequence TTCGTGCGAA has a switch fluorescence ratio of 0.996.
Work on TGAGTTTGAG yielded a switch fluorescence ratio of 0.997.
TTGATGCGGG was tested, and the switch fluorescence ratio was 1.04.
In the case of AGGAGGTACA, the switch fluorescence ratio is reported as 0.956.
Sequence TATTGTTACC has a switch fluorescence ratio of 1.01.
For GCAAGAATCG, the switch fluorescence ratio was 1.2.
AGTAGGTGGG was tested, and the switch fluorescence ratio was 1.01.
Work on TTTGATTCAA yielded a switch fluorescence ratio of 0.995.
AGAAATGAGG was tested, and the switch fluorescence ratio was 0.978.
GGCAGAGC gave a switch fluorescence ratio of 1.01.
CTAGATCTTT gave a switch fluorescence ratio of 0.959.
GCTAGAGTCT was tested, and the switch fluorescence ratio was 1.04.
TTAGTAGG was tested, and the switch fluorescence ratio was 1.02.
In the case of ATGGGACGTG, the switch fluorescence ratio is reported as 0.992.
TCGTATGAAA showed a switch fluorescence ratio of 1.02.
TGAAAGTATC was tested, and the switch fluorescence ratio was 0.964.
Sequence CGACGTTTAG has a switch fluorescence ratio of 1.01.
With GATATCAGAG the switch fluorescence ratio was 0.99.
In the case of CGTATACAAC, the switch fluorescence ratio is reported as 1.06.
TTTCCTCGAA was tested, and the switch fluorescence ratio was 1.12.
Sequence GGGACCGTCC has a switch fluorescence ratio of 1.18.
Sequence GCTCCCAAGT has a switch fluorescence ratio of 1.84.
Sequence ACCTACGAAC has a switch fluorescence ratio of 1.35.
GGGAATCGTT gave a switch fluorescence ratio of 1.02.
TGTGGAGCT was tested, and the switch fluorescence ratio was 0.963.
Sequence GCAAGGCGG has a switch fluorescence ratio of 1.04.
ACTTCGGCTT gave a switch fluorescence ratio of 1.02.
GCAGCATAAC was tested, and the switch fluorescence ratio was 4.78.
Work on GAAAAGGTGT yielded a switch fluorescence ratio of 1.03.
With CCAATAGTTG the switch fluorescence ratio was 1.
TTTAAAGTCA gave a switch fluorescence ratio of 1.
In the case of AGGTGGCAGA, the switch fluorescence ratio is reported as 0.969.
TCACTCGGG showed a switch fluorescence ratio of 1.01.
In the case of GTGATATTTG, the switch fluorescence ratio is reported as 1.01.
In the case of GTGTTTGCT, the switch fluorescence ratio is reported as 0.94.
CGTTTTTCAT was tested, and the switch fluorescence ratio was 0.973.
For CAGCTGGTAG, the switch fluorescence ratio was 1.
AACAACGTA showed a switch fluorescence ratio of 1.04.
TTGTGAGACA was tested, and the switch fluorescence ratio was 1.02.
Work on CTTATGCAAG yielded a switch fluorescence ratio of 1.04.
GAGAACCTAA was tested, and the switch fluorescence ratio was 0.972.
For GCAACTCTCA, the switch fluorescence ratio was 1.21.
Work on ATGAGTAAGA yielded a switch fluorescence ratio of 1.
Sequence CTGGCGCGG has a switch fluorescence ratio of 1.02.
GTCCGCCGTT was tested, and the switch fluorescence ratio was 1.04.
CTTGTTTCCT was tested, and the switch fluorescence ratio was 1.05.
For GCACTCTACG, the switch fluorescence ratio was 1.31.
In the case of TATTTTGGA, the switch fluorescence ratio is reported as 0.989.
In the case of GCCTTCCTAA, the switch fluorescence ratio is reported as 2.59.
Work on GCTGTGTCTG yielded a switch fluorescence ratio of 0.964.
Work on CTTACCGGCT yielded a switch fluorescence ratio of 1.12.
GAGAACTTTT showed a switch fluorescence ratio of 0.984.
